Measured values from the supplement of paper PMC10126150.
Values marked as one replicate rest on one cluster of the flow cell; about a third of the high ones do not repeat.

These sequences were tested on ATP (assay: switch fluorescence ratio, 500 uM ATP over buffer (Cy3 cluster intensity, sum of 5 cycles each) (fold (ratio)); higher = stronger signal-on switching upon ATP binding; sequences stand for … in TCGTCGGCAGCGTCAGATGTGTATAAGAGACAGTTTTTTTTTTTTTTTTTTTTTTTTT…TC). Settings: aptamer strand: ATP DNA aptamer (quencher-CACCTGGGGGAGTATTGCGGAGGAAGG + anchor), 100 nM annealed; ATP concentration: 500 uM; one replicate.
In short: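 Between each of five buffer/ATP cycles, the flow-cell was stripped with NaOH and re-annealed. Each cycle imaged Cy3-labelled switching-strand clusters, annealed to 100 nM quencher-labelled ATP aptamer on a modified Illumina MiSeq flow-cell, first in selection buffer and then after 15 min with 500 uM ATP at 22 °C. The fluorescence ratio is summed target-cycle over summed buffer-cycle Cy3 intensity per cluster, averaged per switch-domain sequence, with clusters outside 100-1000 RFU excluded.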
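Also: ATP exposure 15 min at 22 °C before imaging.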

| Sequence | switch fluorescence ratio |
| --- | --- |
| GAATGAGTAC | 1.08 |
| GAATGATAAC | 0.991 |
| GAATGCAACC | 1.3 |
| GAATGCTACA | 1.02 |
| GAATGGCTAA | 0.988 |
| GAATGGGCGC | 0.979 |
| GAATGTCCCA | 1 |
| GAATGTTCAA | 0.97 |
| GAATGTTTAC | 1.04 |
| GAATGTTTTC | 1.05 |
| GAATTAGGCA | 0.984 |
| GAATTATCAA | 0.987 |
| GAATTATTA | 0.99 |
| GAATTCCGGT | 0.995 |
| GAATTCCTTT | 1.03 |
| GAATTGATAC | 1.05 |
| GAATTGGCAG | 1.02 |
| GAATTTAGGA | 1.04 |
| GAATTTCGA | 1.01 |
| GAATTTGCCG | 0.971 |
| GACAACTTGG | 0.967 |
| GACAATACAT | 1.12 |
| GACAATGCGC | 1.15 |
| GACAATGCTC | 1.97 |
| GACACACG | 1.14 |
| GACACATACA | 1.48 |

| Sequence | switch fluorescence ratio |
| --- | --- |
| GACACCAGTA | 1.02 |
| GACACGCATA | 2.15 |
| GACACTAT | 1.35 |
| GACACTCAC | 1.35 |
| GACACTGGCA | 1.04 |
| GACACTTTGG | 0.981 |
| GACAGATATT | 0.995 |
| GACAGGTTGG | 0.988 |
| GACAGGTTT | 1.24 |
| GACAGTAAAA | 1.09 |
| GACAGTAATT | 1.03 |
| GACAGTACAG | 1.03 |
| GACATAGCCA | 1.1 |
| GACATCACCA | 1.25 |
| GACATCACT | 1.34 |
| GACATCTCGA | 1.03 |
| GACATCTTGT | 1.02 |
| GACATGGGGT | 0.969 |
| GACATTCAAC | 1.02 |
| GACATTCGGC | 1.05 |
| GACATTGTT | 1.01 |
| GACATTTGGC | 0.962 |
| GACCAAATGC | 1.37 |
| GACCAATGGA | 0.991 |
| GACCACGCAT | 2.19 |
| GACCACTAAG | 1.06 |

| Sequence | switch fluorescence ratio |
| --- | --- |
| GACCACTTTG | 1.05 |
| GACCAGCCTT | 1.04 |
| GACCAGTTCC | 1.21 |
| GACCATGCAT | 1.02 |
| GACCATGGCC | 0.996 |
| GACCCGGTTT | 0.984 |
| GACCCTGGGA | 0.998 |
| GACCGAAGTA | 1 |
| GACCGGGGAG | 1 |
| GACCGGTCAT | 0.96 |
| GACCTAATTC | 1.05 |
| GACCTCCATG | 1.01 |
| GACCTCTTGC | 1.01 |
| GACCTTAGT | 1 |
| GACCTTTTAG | 1.03 |
| GACGAAATAA | 1.79 |
| GACGACAGGG | 1.14 |
| GACGACGGTA | 1.62 |
| GACGACGTTT | 1.23 |
| GACGATTCGA | 1.03 |
| GACGATTCT | 1.01 |
| GACGCCAGAG | 1.14 |
| GACGCGATTA | 5.23 |
| GACGGAGTGC | 1.91 |
| GACGGATTGC | 1.16 |
| GACGGGGTAC | 1.16 |

| Sequence | switch fluorescence ratio |
| --- | --- |
| GACGGGGTTT | 1.67 |
| GACGGTAAGG | 1.02 |
| GACGGTGTG | 0.953 |
| GACGGTTGGC | 1.02 |
| GACGTGACGT | 1.04 |
| GACGTGCCAA | 1.16 |
| GACGTTCGCT | 0.997 |
| GACGTTCTAA | 1.08 |
| GACTACGGGA | 2.3 |
| GACTAGCATT | 1.07 |
| GACTAGGCTA | 1.04 |
| GACTATCTGT | 0.975 |
| GACTATTTCT | 1 |
| GACTCAGCTG | 1.04 |
| GACTCGCAGG | 1.06 |
| GACTCTACAC | 1.32 |
| GACTGACATT | 1.14 |
| GACTGAGGAT | 1 |
| GACTGATAGA | 1.03 |
| GACTGATTCG | 0.985 |
| GACTGCCTGA | 1.02 |
| GACTGGGATT | 0.98 |
| GACTGGTCGG | 1.02 |
| GACTGGTTCG | 0.991 |
| GACTGTGGGC | 0.991 |
| GACTTAGGGT | 1.02 |

| Sequence | switch fluorescence ratio |
| --- | --- |
| GACTTCTAAT | 0.999 |
| GACTTGATTT | 1.02 |
| GACTTGGCGC | 1.01 |
| GACTTGTTCC | 1.01 |
| GACTTTCGTT | 0.991 |
| GACTTTGGCC | 0.983 |
| GACTTTGTCG | 1.04 |
| GAGAAAAGC | 0.998 |
| GAGAAAAGCG | 1.02 |
| GAGAATGCT | 1 |
| GAGACATTGC | 1.05 |
| GAGACCAGCC | 1.32 |
| GAGACGCTTG | 0.961 |
| GAGACTGGGT | 1.01 |
| GAGAGACAT | 1.01 |
| GAGAGAGTG | 0.976 |
| GAGAGCCTGG | 0.961 |
| GAGAGCGTTA | 0.978 |
| GAGAGCTAGT | 1.04 |
| GAGAGGAGTG | 0.998 |
| GAGAGGCGTT | 1.02 |
| GAGAGTTCGC | 1.07 |
| GAGATAGCCT | 1.09 |
| GAGATATAGT | 0.969 |
| GAGATATTAT | 0.967 |
| GAGATCTGAT | 0.973 |

| Sequence | switch fluorescence ratio |
| --- | --- |
| GAGATGCTTC | 1.2 |
| GAGATTAGGA | 0.991 |
| GAGATTTGAG | 1 |
| GAGATTTGCG | 0.972 |
| GAGCAAGGAT | 1.41 |
| GAGCCCGAGA | 0.98 |
| GAGCCGGATT | 0.973 |
| GAGCCTCAAG | 0.978 |
| GAGCCTGATG | 0.988 |
| GAGCCTTCGT | 1.04 |
| GAGCGATCTA | 0.987 |
| GAGCGATGTT | 1.56 |
| GAGCGGAATG | 1.06 |
| GAGCGGCTG | 1.02 |
| GAGCGGGGG | 1.03 |
| GAGCGTATAA | 1.03 |
| GAGCGTGAGT | 0.945 |
| GAGCTACGTG | 1.04 |
| GAGCTAGATG | 0.976 |
| GAGCTGCTGG | 0.982 |
| GAGCTTGTAC | 1.32 |
| GAGGAACTTG | 0.98 |
| GAGGAAGTAA | 1.07 |
| GAGGACAGAC | 1.1 |
| GAGGACCCAT | 1.04 |
| GAGGAGCTTT | 0.958 |

| Sequence | switch fluorescence ratio |
| --- | --- |
| GAGGAGGCTC | 1.03 |
| GAGGAGGT | 0.934 |
| GAGGATATAA | 1.05 |
| GAGGATGGAA | 1.2 |
| GAGGATGTGG | 1.02 |
| GAGGCAACCG | 1.09 |
| GAGGCACAA | 1.11 |
| GAGGCACAGA | 0.991 |
| GAGGCGCG | 1.04 |
| GAGGCGGGCA | 1 |
| GAGGCGTATA | 1.02 |
| GAGGCTGAAG | 0.992 |
| GAGGCTGTGT | 1.01 |
| GAGGCTTGT | 0.972 |
| GAGGCTTTAT | 1.01 |
| GAGGG | 1.04 |
| GAGGGAACGG | 0.985 |
| GAGGGAGC | 0.99 |
| GAGGGAGCAT | 1.42 |
| GAGGGAGTGA | 1.06 |
| GAGGGATCAT | 1.03 |
| GAGGGCGGTC | 1.06 |
| GAGGGTAAGG | 0.94 |
| GAGGTACTTA | 1.01 |
| GAGGTAGTGA | 1.02 |
| GAGGTATCGA | 1.07 |

| Sequence | switch fluorescence ratio |
| --- | --- |
| GAGGTCTTA | 0.959 |
| GAGGTGTATA | 1.05 |
| GAGGTGTGCG | 0.997 |
| GAGGTTAAA | 1.04 |
| GAGGTTCCTG | 0.999 |
| GAGGTTCG | 0.976 |
| GAGGTTCTGC | 0.939 |
| GAGGTTGATA | 1.02 |
| GAGGTTGTCG | 0.963 |
| GAGTACGTCG | 0.988 |
| GAGTAGTTAG | 1.01 |
| GAGTATCGCG | 0.962 |
| GAGTATGTTA | 0.995 |
| GAGTATTCCC | 1.01 |
| GAGTATTCTG | 0.942 |
| GAGTATTGTA | 0.979 |
| GAGTCAACCT | 1.41 |
| GAGTCAGTAG | 1.06 |
| GAGTCATTGA | 0.975 |
